Out of some 52,000 compounds screened, about 4,300 (8.3%) were called active. Cut-off read from the data, not from the text of the source: active = survival mostly below about 52% (no sharp cut-off); inactive = mostly above about 56%. The list shows a part of the results.

This experiment concerns DeltatarO mutant. As to the kind of experiment: growth inhibition of S. aureus wild type versus tarO mutant, primary screen, teichoic acid synthesis inhibitors, RN4220, OD600 (AID 463173). The settings on record: OD600, 18 h, stronger effect = lower value, screened at 18.75 µg/mL (by protocol).
Regarding `Cc1ccc(NC(=O)Cn2cc(S(=O)(=O)N3CCN(c4ccccc4F)CC3)c3ccccc3c2=O)cc1F`, the survival was inactive: 85%.

In the case of `Cc1csc2nc(COc3ccc(NC(=O)COc4ccc(F)cc4)cc3)cc(=O)n12`, the survival is inactive: 66%.

Take `COc1ccc(N2CCN(C(CNC(=O)c3ccc(C)cc3)c3ccc4c(c3)OCO4)CC2)cc1` (stereo not given): the survival is inactive: 95%.

As to `Oc1ccc(-c2csc(-c3ccccc3)n2)cc1O`, the survival was inactive: 111%.

Regarding `Cc1cc2c(cc1NC(=O)c1ccc(C(C)(C)C)cc1)n(C)c(=O)c(=O)n2C`, the survival was inactive: 84%.

As for `CC(C)c1ccc(CNc2nc(-c3ccco3)nn2S(=O)(=O)c2ccccc2)cc1`, the survival was inactive: 84%.

Take `CCOc1ccccc1CNC(=O)c1nn(C)c2c1CS(=O)(=O)c1ccccc1-2`: the survival is inactive: 101%.

As for `N#Cc1ccccc1NC(=O)CC1Nc2ccccc2NC1=O` (stereo not given), the survival was inactive: 98%.

As for `CCc1cccc2c(=O)c(C(=O)N3CCCCC3)c[nH]c12`, the survival is inactive: 96%.

As to `CN1CCN(C(=O)c2cnn(-c3cccc(F)c3)c2C2CCN(C(=O)OC(C)(C)C)CC2)CC1`, the survival was inactive: 82%.

As to `Cc1ccc(C)c(CSc2c(C(C)C)cnc3c2c(=O)n(C)c(=O)n3C)c1`, the survival is inactive: 104%.

`CCOc1nc(NCCN2CCOCC2)nc(NC(C)C)n1`: the survival is inactive: 92%.

Turning to `O=C1CC(c2ccccc2)Cc2[nH]c(=O)c(-c3nc(-c4ccc(F)cc4)cs3)cc21` (stereo not given), the survival is inactive: 154%.

Take `CSc1ccc(NC(=O)C2CC(O)CN2C(=O)Nc2ccccc2)cc1` (stereo not given): the survival is inactive: 109%.

For the compound `O=C(CN1C(=O)COc2ccc(S(=O)(=O)N3CCCC3)cc21)N1CCN(c2ccccc2F)CC1`, the survival was inactive: 89%.

`Cc1ccccc1-c1nc(CS(=O)CC(=O)NCCc2ccc(Cl)cc2)c(C)o1` (stereo not given): the survival was inactive: 112%.

Consider `CC(C)Oc1ccc(CNC(=O)C2COc3ccccc3C2)cc1` (stereo not given), for which the survival was inactive: 58%.

`COc1ccc(-c2noc(-c3ccc(N4CCCCC4)c([N+](=O)[O-])c3)n2)cc1`: the survival was active: 37%.

Regarding `CCOC(=O)c1cnc2ccc(OCC)cc2c1N1CCN(c2cccc(Cl)c2)CC1`, the survival was active: 3%.

On to `O=C1CN(C(=O)C2CCCCC2)C(c2ccccc2)c2cc(F)ccc2N1` (stereo not given), for which the survival is inactive: 70%.

With `CS(=O)(=O)N1CCN(CC(=O)NC2CCCCC2)CC1`, the survival was inactive: 73%.

Regarding `Cc1ccc(-c2cc(C(=O)Oc3ccccc3)c3cccc(C)c3n2)cc1`, the survival was inactive: 50%.

`O=C1CC(c2ccccc2)NC(=S)N1` (stereo not given): the survival was inactive: 68%.

Regarding `COC(=O)c1cc(S(=O)(=O)N2CCN(c3ccc(C)cc3C)CC2)cn1C`, the survival was inactive: 66%.

For the compound `Cc1sc(-c2cc3ccccc3oc2=O)nc1-c1ccc(Cl)cc1`, the survival was inactive: 93%.

Turning to `O=C(NCc1ccccc1)C(=O)NCC(c1ccco1)S(=O)(=O)c1ccccc1` (stereo not given), the survival is inactive: 76%.

On to `COc1ccc(N2CCN(C(CNC(=O)C(=O)NCc3ccc(F)cc3)c3cccnc3)CC2)cc1` (stereo not given), for which the survival was inactive: 59%.

For the compound `CCc1ccc(NC(=O)N(Cc2c[nH]c3ccccc23)C2CCCCCC2)cc1`, the survival was inactive: 102%.

Regarding `CCCCN1C(=O)C(O)(c2c(C)[nH]c3ccccc23)c2cc(Br)ccc21` (stereo not given), the survival is active: 27%.

`Cc1cc2nn(-c3ccc(F)cc3)nc2cc1NC(=O)c1cc(Cl)ccc1Cl`: the survival was inactive: 141%.

Consider `Cc1cc(OCC(=O)NCC2(N(C)C)CCCCC2)cc(C)c1Cl`, for which the survival was inactive: 91%.

As for `CCN1CCN(C(c2cccc(Cl)c2)c2c(O)cc(C)n(CCOC)c2=O)CC1` (stereo not given), the survival is inactive: 80%.

`Cc1ccc(CCNC(=O)CN2C(=O)COc3ccc(S(=O)(=O)N4CCC(C)CC4)cc32)cc1`: the survival is inactive: 92%.

On to `CCn1cc(C(=O)NCCCN(CC(C)C)CC(C)C)c(=O)c2cc(S(=O)(=O)N3CCc4ccccc4C3)ccc21`, for which the survival is inactive: 89%.

In the case of `Cc1ccc(-c2nnc(SCC(=O)NCCC(C)C)nc2-c2ccc(C)cc2)cc1`, the survival is inactive: 104%.

Take `COc1cccc(C2=NS(=O)(=O)N(C)C(C(=O)Nc3cccc(O)c3)=C2)c1`: the survival was inactive: 70%.

Regarding `COc1ccc(CC(=O)Nc2ccc(-c3nc4ccccc4s3)cc2Cl)cc1`, the survival was inactive: 69%.

For the compound `COc1ccc(Cl)cc1NC(=O)CSc1nnc(C)n2c1cc1occc12`, the survival is inactive: 50%.

Turning to `Cc1cc(NC(=O)C2C3C(=O)N(c4ccccc4Cl)C(C(=O)NC(C)(C)C)C34C=CC2(C)O4)no1` (stereo not given), the survival was inactive: 108%.

`CCN(CC)CCCN1C(=O)C2C3C=CC(C3)C2C1=O` (stereo not given): the survival was inactive: 103%.

As to `COC(=O)c1cccc(NC(=O)COC(=O)c2ccco2)c1`, the survival is inactive: 75%.

For the compound `O=S(=O)(NCCc1csc(-c2ccc(F)cc2)n1)c1ccc(F)cc1F`, the survival is inactive: 87%.

In the case of `COc1ccc(N2CC(NC(=O)c3cccs3)CC2=O)cc1OC` (stereo not given), the survival is inactive: 89%.

Take `COc1ccc(-n2ncc(C(=O)Nc3ccc(C)cc3Cl)c2C2CCN(C(=O)OC(C)(C)C)CC2)cc1`: the survival was inactive: 83%.

`CCCCn1c(SCC(=O)Nc2ccccc2)nc2ccccc2c1=O`: the survival is inactive: 94%.

As to `CCc1ccc(-c2[nH]c3c(c2-c2c(-n4cccc4)n(C)c(=O)[nH]c2=O)c(=O)[nH]c(=O)n3C)cc1`, the survival was inactive: 65%.

`O=C(Nc1nnc(S(=O)(=O)N2CCCCC2)s1)c1ccc(Cl)cc1`: the survival is active: 37%.

Consider `CC(=O)Nc1ccc(NS(=O)(=O)c2ccc3c(c2)CCCN3C(C)=O)cc1`, for which the survival is inactive: 87%.

Regarding `COc1ccc(S(=O)(=O)NCC(c2ccco2)S(=O)(=O)c2ccc(C)cc2)cc1C` (stereo not given), the survival was inactive: 103%.

For `CCOc1ccc(NC(=O)CSc2nnc(CC)c(CC)n2)cc1`, the survival is inactive: 85%.

With `CCN(CC)CCNC(=O)C1CCCN(c2nnc(C)c3c(C)n(-c4ccc(Cl)cc4)nc23)C1` (stereo not given), the survival was inactive: 113%.

For the compound `CCN(CC)C(=O)CSc1nnc(COc2ccc(Br)cc2)o1`, the survival was inactive: 108%.

For `O=C(NCC1CCCO1)c1cccc(C(=O)NCC2CCCO2)c1` (stereo not given), the survival was inactive: 100%.

Take `Cc1cccc(C)c1NC(=O)C1CCCN(S(=O)(=O)c2c(C)noc2/C=C/N(C)C)C1` (stereo not given): the survival is inactive: 92%.

On to `Cc1cc(C=C(C#N)C#N)c(C)n1-c1ccc(S(N)(=O)=O)cc1`, for which the survival is inactive: 97%.

On to `COc1ccccc1CNC(=O)c1ccc(NC(=O)N2CC(C)Sc3ccccc32)cc1` (stereo not given), for which the survival is inactive: 66%.

Consider `CCc1ccc(NC(=O)C(Cc2ccccc2)NS(=O)(=O)c2ccc3c(c2)CCN3C(C)=O)cc1` (stereo not given), for which the survival was inactive: 80%.

For the compound `Cc1cc(C)c(NC(=O)c2cc(CN3CCOCC3)on2)c(C)c1`, the survival is inactive: 70%.

For the compound `COc1ccc2cc(S(=O)(=O)c3ccccc3F)c(=O)oc2c1`, the survival was inactive: 89%.

Take `C=CC(=O)NCC1OCCc2ccccc21` (stereo not given): the survival is inactive: 112%.

For the compound `CCOc1ccc(Sc2cc(C(=O)NCCCOC)c3ccccc3n2)cc1`, the survival is inactive: 93%.

Take `CCOC(=O)c1cc(-c2ccc(C)cc2)n(CCC(=O)NCc2ccccc2)c1C`: the survival is inactive: 108%.

For the compound `Cc1cccc(OCC(=O)Nc2ccc(C(=O)OCc3cc(=O)n4nc(C5CC5)sc4n3)cc2)c1`, the survival was active: -2%.

Consider `COC(=O)c1ccc(NC(=O)CSc2ccc(-c3cccs3)nn2)cc1`, for which the survival is inactive: 85%.

With `Cc1ccc(-c2noc(-c3cccnc3NCc3ccc(Cl)cc3)n2)cc1`, the survival was inactive: 55%.

Regarding `Cc1ccc(-c2nc3scc(CCNS(=O)(=O)c4ccc(C)c(C)c4)n3n2)cc1`, the survival is inactive: 79%.

Regarding `O=C(NCCc1nc2ccccc2n1CCOc1ccc(Cl)cc1)C1CCCCC1`, the survival was active: 36%.

Turning to `COc1ccccc1CNC(=O)Cn1c(=O)oc2ccccc21`, the survival was inactive: 71%.

With `Cc1nn(-c2nc3ccccc3[nH]2)c(N)c1-c1ccccc1`, the survival is active: 2%.

In the case of `O=C(CSc1nc2c(c(=O)[nH]1)CCCC2)Nc1cccc(O)c1`, the survival is inactive: 68%.

`CCCCn1c(SCC(=O)N2CCCCCC2)nnc1-c1ccoc1C`: the survival is inactive: 77%.

With `COc1cc2[nH]c(=O)n(CCCC(=O)NCc3ccccc3Cl)c(=O)c2cc1OC`, the survival is inactive: 77%.

`COCCCNC(=O)C1CCN(c2nnc(-n3cccc3CNc3ccc(C)cc3)s2)CC1`: the survival was inactive: 58%.

Regarding `Cc1cc(OCCn2c(C3CC(=O)N(Cc4ccc(F)cc4)C3)nc3ccccc32)ccc1Cl` (stereo not given), the survival was active: 1%.

Consider `O=C(Cn1c(=O)oc2ccccc21)NCc1ccccc1Cl`, for which the survival is inactive: 96%.

As for `O=C(CSc1nc(-c2ccco2)nc2cc(=O)[nH]n12)Nc1ccccc1Cl`, the survival is inactive: 73%.

In the case of `COC(=O)C1=C(C)C(c2ccccc2OC)NC(=O)N1` (stereo not given), the survival is inactive: 85%.

In the case of `CCOc1ccc2ncc3c(-c4ccccc4)nn(CC(=O)Nc4cccc(F)c4)c3c2c1`, the survival was inactive: 92%.

In the case of `COc1ccc(-n2c(-c3ccc(F)cc3)cn3c4c(=O)n(C)c(=O)n(C)c4nc23)cc1`, the survival is inactive: 72%.

Take `Cc1ccc(C)c(N2CCN(CCCNC(=O)Cn3c(-c4cccs4)cc4ccccc43)CC2)c1`: the survival was inactive: 72%.

`Cc1cc(=O)n2c(C(=O)Nc3ccc(C)c(C)c3)c(C(=O)Nc3ccccc3)sc2n1`: the survival was inactive: 52%.

Consider `CN(C)c1ccc(CNc2nc(-c3ccco3)nn2S(=O)(=O)c2ccc(Cl)cc2)cc1`, for which the survival is inactive: 98%.

Regarding `CC1CCCCC1NC(=O)CSc1nccc(=O)[nH]1` (stereo not given), the survival was inactive: 69%.

Take `NC(=O)C1CCCN1S(=O)(=O)c1ccc(F)cc1` (stereo not given): the survival is inactive: 59%.

As for `CCN(C(=O)CSc1nnc(-c2ccc(Cl)cc2)o1)c1ccccc1`, the survival was inactive: 61%.

`CCc1cccc(C)c1NC(=O)C1CCCN(S(=O)(=O)c2cccc3nsnc23)C1` (stereo not given): the survival is inactive: 89%.

As to `COC(=O)c1ccccc1NC(=O)CSc1nc2sc3c(c2c(=O)[nH]1)CCCC3`, the survival is inactive: 61%.

On to `O=C(CN1C(=O)C2CCCCN2c2ccc(C(=O)N3CCCC3)cc21)NCc1ccccc1` (stereo not given), for which the survival was inactive: 91%.

As to `COCCCNC(=O)Cn1c(=O)n(-c2cccc(C)c2)c(=O)c2c3c(sc21)CN(C(C)=O)CC3`, the survival was inactive: 72%.

On to `CCCCn1c(CCNC(=O)c2ccc(F)cc2)nc2ccccc21`, for which the survival was inactive: 68%.

The record behind these values is PubChem BioAssay AID463173 (ICCB-Longwood Screening Facility, Harvard Medical School, 2010).
